This is one part of the list. Most values come without repeats; read them as rough.
Each compound was assayed on COLO800 (assay: cell count relative to DMSO control; melanoma cells; higher = more viable cells). Conditions: library dose: standard library concentration; 72 h.
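Further: cells treated in 1,536-well plates, then fixed and DAPI-stained, with nuclei counted from automated high-throughput microscope images.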

SMILES	cell count
COc1ccc(-c2ccc3c(N4CCOCC4)nc(N4C[C@@H](C)O[C@@H](C)C4)nc3n2)cc1CO + Oc1nc(-c2ccc(C(F)(F)F)cc2)nc2c1CSCC2 [XAV939] (first compound 0.1 µM, partner dose 10 µM)	61.5%
COc1ccc(-c2ccc3c(N4CCOCC4)nc(N4C[C@@H](C)O[C@@H](C)C4)nc3n2)cc1CO + O=C1NC(=O)/C(=C/c2ccc(-c3ccc(F)cc3O)o2)S1 [AS252424] (first compound 0.1 µM, partner dose 5 µM)	74.3%
COC(=O)c1sccc1S(=O)(=O)Nc1ccc(Nc2ccccc2)cc1OC + Cc1cc([N+](=O)[O-])ccc1NS(=O)(=O)c1cc(Cl)ccc1Cl [FH535] (first compound 5 µM, partner dose 5 µM)	62.3%
CCN(CC)CCCCNc1ncc2cc(-c3cc(OC)cc(OC)c3)c(NC(=O)NC(C)(C)C)nc2n1 + Cn1cc(/C=C2\C(=O)Nc3cccnc32)c2ccccc21 [GW441756] (first compound 0.5 µM, partner dose 2 µM)	53.3%
CCN(CC)CCCCNc1ncc2cc(-c3cc(OC)cc(OC)c3)c(NC(=O)NC(C)(C)C)nc2n1 + c1cc(-c2cnn3cc(-c4ccc(OCCN5CCCCC5)cc4)cnc23)ccn1 [Dorsomorphin] (first compound 0.5 µM, partner dose 2 µM)	68.5%
CCN(CC)CCCCNc1ncc2cc(-c3cc(OC)cc(OC)c3)c(NC(=O)NC(C)(C)C)nc2n1 + O=C(O)C(=O)Nc1sc2c(c1C(=O)O)CCNC2 [TCS401] (first compound 0.5 µM, partner dose 8.33333 µM)	67%

Source: the supplement of paper PMC4604168 (melanoma cell lines)
